{"source": "the BET-seq Pho4 binding data (Le et al. 2018)", "note": "Some of the results follow. Values were computed here from the reads of four pooled replicates and scatter widely.", "data": [{"molecular_target": "T1, Pho4 (S. cerevisiae) (UniProt P07270)", "T1 sequence": "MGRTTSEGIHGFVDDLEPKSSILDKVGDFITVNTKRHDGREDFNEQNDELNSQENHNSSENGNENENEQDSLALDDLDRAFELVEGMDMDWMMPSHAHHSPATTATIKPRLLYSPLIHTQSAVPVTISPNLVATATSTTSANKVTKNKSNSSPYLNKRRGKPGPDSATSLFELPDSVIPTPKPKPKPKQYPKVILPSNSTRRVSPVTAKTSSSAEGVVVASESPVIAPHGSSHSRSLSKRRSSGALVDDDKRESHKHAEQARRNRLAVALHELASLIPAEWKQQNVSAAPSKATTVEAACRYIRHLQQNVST", "assay": "relative binding free energy (BET-seq); higher = weaker binding", "conditions": "reference: library average", "units": {"relative binding free energy": "kcal/mol"}, "values": [{"sequence": "TTTGTCACGTGTGACT", "relative binding free energy": 0.28}, {"sequence": "ATGAGCACGTGTGGTC", "relative binding free energy": -0.06}, {"sequence": "ATGTTCACGTGAAGTA", "relative binding free energy": 0.21}, {"sequence": "TTGACCACGTGTATGT", "relative binding free energy": -0.04}, {"sequence": "ACTTTCACGTGGGGGA", "relative binding free energy": 0.13}, {"sequence": "GTTCTCACGTGGGAAG", "relative binding free energy": 0.3}, {"sequence": "GTGCGCACGTGCGGGG", "relative binding free energy": -0.16}, {"sequence": "GTGTCCACGTGTTGGT", "relative binding free energy": 0.02}, {"sequence": "AGGGTCACGTGGTTGA", "relative binding free energy": -0.02}, {"sequence": "AGGGGCACGTGCCGGA", "relative binding free energy": -0.37}, {"sequence": "TGAGACACGTGGGGGG", "relative binding free energy": -0.19}, {"sequence": "ACAAGCACGTGGGGTT", "relative binding free energy": -0.07}, {"sequence": "TTGATCACGTGAAGGG", "relative binding free energy": 0.37}, {"sequence": "GTAGTCACGTGCAGGC", "relative binding free energy": 0.2}, {"sequence": "TTTGTCACGTGTGATA", "relative binding free energy": 0.24}, {"sequence": "CTGGACACGTGTTGGA", "relative binding free energy": 0.17}, {"sequence": "TATATCACGTGTCGGG", "relative binding free energy": 0.07}, {"sequence": "CTGGTCACGTGTTGGT", "relative binding free energy": 0.15}, {"sequence": "GGATTCACGTGGTATT", "relative binding free energy": 0.22}, {"sequence": "AGTTTCACGTGCGCGT", "relative binding free energy": 0.26}, {"sequence": "CTTGTCACGTGGGTGT", "relative binding free energy": -0.1}, {"sequence": "TATGACACGTGTGGCT", "relative binding free energy": -0.02}, {"sequence": "TTGGCCACGTGTATAT", "relative binding free energy": -0.07}, {"sequence": "CGGTACACGTGGCGGA", "relative binding free energy": 0.05}, {"sequence": "GAGGACACGTGTTTTG", "relative binding free energy": 0.21}, {"sequence": "ATCATCACGTGTAGGT", "relative binding free energy": 0.18}, {"sequence": "TGGTACACGTGTGGAT", "relative binding free energy": 0.03}, {"sequence": "GGTCACACGTGGCTTG", "relative binding free energy": 0.06}, {"sequence": "CCGTTCACGTGTGTTG", "relative binding free energy": 0.28}, {"sequence": "GGGGTCACGTGTTTAA", "relative binding free energy": 0.17}, {"sequence": "CGCGGCACGTGTGAGA", "relative binding free energy": 0.04}, {"sequence": "CTTATCACGTGGGAGA", "relative binding free energy": 0.01}, {"sequence": "TTGGTCACGTGGACTA", "relative binding free energy": 0.03}, {"sequence": "GTAGACACGTGGTAGT", "relative binding free energy": -0.02}, {"sequence": "GAGCTCACGTGGTGGA", "relative binding free energy": 0.31}, {"sequence": "TTGAGCACGTGTGATA", "relative binding free energy": 0.04}, {"sequence": "AGGCACACGTGGTGGT", "relative binding free energy": -0.06}, {"sequence": "ATGTTCACGTGTACGT", "relative binding free energy": 0.15}, {"sequence": "TTGAACACGTGGGGTC", "relative binding free energy": -0.1}, {"sequence": "CTGTTCACGTGGATAG", "relative binding free energy": 0.13}, {"sequence": "GGTATCACGTGAGAGA", "relative binding free energy": 0.41}, {"sequence": "ATGGTCACGTGGACTT", "relative binding free energy": 0.17}, {"sequence": "TGGGACACGTGAGACG", "relative binding free energy": 0.26}, {"sequence": "GTATTCACGTGTAATA", "relative binding free energy": 0.33}, {"sequence": "GTTAGCACGTGTGGAT", "relative binding free energy": 0.12}, {"sequence": "ATAAGCACGTGTTTAT", "relative binding free energy": -0.16}, {"sequence": "GATATCACGTGTGCGT", "relative binding free energy": 0.22}, {"sequence": "TATGTCACGTGGGAGT", "relative binding free energy": -0.09}, {"sequence": "TGATTCACGTGTGAGT", "relative binding free energy": 0.24}, {"sequence": "AATGGCACGTGAACGG", "relative binding free energy": 0.18}, {"sequence": "GGGGCCACGTGGTGCT", "relative binding free energy": -0.13}, {"sequence": "CCGTGCACGTGGTGTT", "relative binding free energy": -0.18}, {"sequence": "ATTATCACGTGGAGCT", "relative binding free energy": 0.05}, {"sequence": "TGGTGCACGTGGAAGT", "relative binding free energy": 0.07}, {"sequence": "GAGTACACGTGCGGTT", "relative binding free energy": 0.18}, {"sequence": "AAAAACACGTGGGAGG", "relative binding free energy": 0}, {"sequence": "TGAAGCACGTGCTATG", "relative binding free energy": -0.09}, {"sequence": "TTGAACACGTGCAGTG", "relative binding free energy": 0.02}, {"sequence": "AATATCACGTGAGTAG", "relative binding free energy": 0.31}, {"sequence": "AGGAGCACGTGGATTT", "relative binding free energy": 0.11}, {"sequence": "TTATGCACGTGTTGGA", "relative binding free energy": -0.04}, {"sequence": "CCGGGCACGTGGGGGG", "relative binding free energy": -0.29}, {"sequence": "GGGATCACGTGCGGTC", "relative binding free energy": 0.2}, {"sequence": "GGGGTCACGTGTTAGC", "relative binding free energy": 0.31}, {"sequence": "TGAATCACGTGGCTTG", "relative binding free energy": 0.23}, {"sequence": "CTTGCCACGTGTCGGG", "relative binding free energy": 0.04}, {"sequence": "TGGTGCACGTGGACAG", "relative binding free energy": -0.02}, {"sequence": "AGACTCACGTGGGAGG", "relative binding free energy": 0.1}, {"sequence": "GTGATCACGTGTAAGG", "relative binding free energy": 0.25}, {"sequence": "AGGTCCACGTGGTGTG", "relative binding free energy": -0.09}, {"sequence": "ATATACACGTGTTGAG", "relative binding free energy": -0.06}, {"sequence": "GGGGGCACGTGCGGAC", "relative binding free energy": -0.02}, {"sequence": "GCCGGCACGTGGGGGG", "relative binding free energy": -0.19}, {"sequence": "ATGATCACGTGGATAG", "relative binding free energy": 0.07}, {"sequence": "TTTTGCACGTGACGGA", "relative binding free energy": 0.19}, {"sequence": "CGGTACACGTGGGGTA", "relative binding free energy": -0.12}, {"sequence": "TCGGTCACGTGGTAAA", "relative binding free energy": 0.21}, {"sequence": "TGTGGCACGTGTGCAA", "relative binding free energy": -0.11}, {"sequence": "TGGATCACGTGTAGTA", "relative binding free energy": 0.21}, {"sequence": "GTCCACACGTGGGGGT", "relative binding free energy": -0.03}, {"sequence": "AATTGCACGTGAATTA", "relative binding free energy": 0.16}, {"sequence": "ACGTTCACGTGGTTAG", "relative binding free energy": 0.08}, {"sequence": "TGGTGCACGTGTGCGC", "relative binding free energy": -0.09}, {"sequence": "ACTTGCACGTGGTGGG", "relative binding free energy": -0.17}, {"sequence": "TAGTTCACGTGCAGGG", "relative binding free energy": 0.35}, {"sequence": "TGTTGCACGTGTGCAA", "relative binding free energy": -0.04}, {"sequence": "TGTGTCACGTGTGGTC", "relative binding free energy": 0.14}, {"sequence": "TTGGCCACGTGTGTAA", "relative binding free energy": -0.07}, {"sequence": "GTAGTCACGTGGTAGT", "relative binding free energy": 0.16}, {"sequence": "AGGCTCACGTGAGGCG", "relative binding free energy": 0.2}, {"sequence": "TACAGCACGTGGGGAG", "relative binding free energy": -0.25}, {"sequence": "TAGAACACGTGTTTGG", "relative binding free energy": -0.07}, {"sequence": "GCGTTCACGTGGGCAG", "relative binding free energy": 0.28}, {"sequence": "TGTGGCACGTGAGGGC", "relative binding free energy": 0.24}, {"sequence": "GGTGGCACGTGCGGAA", "relative binding free energy": -0.21}, {"sequence": "ATCGGCACGTGTTTGA", "relative binding free energy": 0}, {"sequence": "GCGTTCACGTGGGGCG", "relative binding free energy": 0.07}, {"sequence": "TAGATCACGTGTTTAG", "relative binding free energy": 0.05}, {"sequence": "CGTGGCACGTGGCGTT", "relative binding free energy": -0.13}, {"sequence": "TTGAGCACGTGACGTG", "relative binding free energy": 0.06}, {"sequence": "TTTTTCACGTGATCTG", "relative binding free energy": 0.27}, {"sequence": "ATGGCCACGTGATTGT", "relative binding free energy": -0.01}, {"sequence": "TTCGTCACGTGGGAGC", "relative binding free energy": -0.03}, {"sequence": "TAAGTCACGTGTTACG", "relative binding free energy": 0.01}, {"sequence": "TAAATCACGTGGGGGT", "relative binding free energy": 0.03}, {"sequence": "GATGGCACGTGGCGTA", "relative binding free energy": -0.14}, {"sequence": "AGGAACACGTGAAAGT", "relative binding free energy": 0.39}, {"sequence": "AGTGACACGTGCAAGT", "relative binding free energy": -0.02}, {"sequence": "ATAAGCACGTGATGGG", "relative binding free energy": -0.01}, {"sequence": "GAAGTCACGTGTTTGA", "relative binding free energy": 0.23}, {"sequence": "TTCTACACGTGTATTG", "relative binding free energy": 0.01}, {"sequence": "CGTTGCACGTGGGATT", "relative binding free energy": -0.03}, {"sequence": "TTAATCACGTGAAGTA", "relative binding free energy": 0.33}, {"sequence": "AACGTCACGTGTTGAG", "relative binding free energy": 0.2}, {"sequence": "GGTATCACGTGTATAA", "relative binding free energy": 0.2}]}]}
